Assay results taken from article PMC4336329 (PLoS ONE, 2015).
Hit rate of the full screen: of about 310,000 compounds, about 2,200 (0.71%) showed an effect of 50% or more. Effects have a minus sign here. Some of the results follow.

What follows are molecules tested against human ether-à-go-go-related gene (hERG) potassium channel (human, UniProt Q12809) (assay: primary screen, population patch clamp on CHO cells stably expressing hERG).
human ether-à-go-go-related gene (hERG) potassium channel, sequence (Q12809 whole entry, looked up): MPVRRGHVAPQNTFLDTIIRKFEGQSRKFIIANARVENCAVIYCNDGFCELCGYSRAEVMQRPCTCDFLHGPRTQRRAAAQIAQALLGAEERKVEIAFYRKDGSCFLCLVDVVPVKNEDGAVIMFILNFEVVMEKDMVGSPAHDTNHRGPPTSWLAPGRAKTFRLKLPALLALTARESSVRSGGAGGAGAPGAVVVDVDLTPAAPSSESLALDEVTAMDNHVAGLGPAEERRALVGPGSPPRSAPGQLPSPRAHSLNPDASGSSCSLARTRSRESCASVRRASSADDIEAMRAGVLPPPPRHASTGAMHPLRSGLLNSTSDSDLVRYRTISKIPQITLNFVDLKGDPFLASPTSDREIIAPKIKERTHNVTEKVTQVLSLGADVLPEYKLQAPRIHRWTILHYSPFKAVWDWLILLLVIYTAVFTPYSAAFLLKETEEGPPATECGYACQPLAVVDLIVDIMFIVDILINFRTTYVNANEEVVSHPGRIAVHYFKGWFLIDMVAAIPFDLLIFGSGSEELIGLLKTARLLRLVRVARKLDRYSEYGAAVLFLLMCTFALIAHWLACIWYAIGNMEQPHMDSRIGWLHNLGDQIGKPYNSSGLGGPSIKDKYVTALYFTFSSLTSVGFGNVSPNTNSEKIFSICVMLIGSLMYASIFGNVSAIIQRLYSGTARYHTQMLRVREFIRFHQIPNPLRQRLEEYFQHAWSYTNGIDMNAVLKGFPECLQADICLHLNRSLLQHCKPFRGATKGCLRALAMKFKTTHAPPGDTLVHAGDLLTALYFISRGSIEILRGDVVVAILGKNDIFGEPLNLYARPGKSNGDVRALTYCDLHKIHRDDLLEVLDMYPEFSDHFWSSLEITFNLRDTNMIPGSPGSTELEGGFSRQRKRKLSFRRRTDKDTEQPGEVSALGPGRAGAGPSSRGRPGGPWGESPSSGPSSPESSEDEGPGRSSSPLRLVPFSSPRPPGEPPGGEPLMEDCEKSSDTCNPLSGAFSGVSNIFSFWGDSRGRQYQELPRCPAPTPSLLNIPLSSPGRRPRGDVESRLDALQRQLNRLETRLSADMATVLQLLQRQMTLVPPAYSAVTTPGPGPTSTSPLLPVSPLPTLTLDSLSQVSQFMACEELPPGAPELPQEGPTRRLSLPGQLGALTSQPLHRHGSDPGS

Compound	hERG current change (%, negative = inhibition) at 1uM [%]
O=C(O)C1C2CCC(O2)C1C(=O)Nc1ccc(Cl)cc1 (centres unmarked)	11.3
C=CCn1c(C)cc(C)c(C#N)c1=O	15.3
Cc1ccc(C(=O)N/C(=C\c2sccc2C)C(=O)NCCCN2CCOCC2)cc1	9.15
Cc1nn(CCCC(=O)NC(C)c2ccccc2)c(=O)c2nn(-c3ccccc3)c(C)c12 (centres unmarked)	0.213
COc1cccc(Nc2nc(-c3sc(NC(=O)c4ccco4)nc3C)cs2)c1	14.9
O=C(NCCOc1cccc2cccnc12)c1cccs1	-6.26
CCOc1cc(/C=N/NC(=O)CN(CCc2ccccc2)S(=O)(=O)c2ccc(NC(C)=O)cc2)ccc1O	6.73
O=C(COc1ccc(F)cc1Br)N1CCN(c2ncccn2)CC1	-1.5
O=[N+]([O-])c1ccc(NCCCNS(=O)(=O)c2ccccc2)cc1	-14.8
CC1CCCCN1CCNC(=O)c1cc2c(=O)n(C)c3ccccc3c2n1C (centres unmarked)	3.94
COc1ccc(C2CC(c3ccc(F)cc3)=NN2c2ccccc2)cc1OC (centres unmarked)	10.8
CCCN(C(=O)CSCc1ccc(Cl)cc1)c1c(N)n(Cc2ccccc2)c(=O)[nH]c1=O	14.4
COc1ccc2cc(CCNC(=O)c3ccc(S(=O)(=O)N4CCOCC4)cc3)c(=O)[nH]c2c1	3.69
Cc1cc(C)cc(NC(=O)C2CCCN2/C=C/C(=O)C(F)(F)F)c1 (centres unmarked)	8.06
COc1ccc(C(=O)COC(=O)CCc2ccccc2)cc1	13.6
CCOC1(OCC)N=C(N)C2(C#N)C(c3cccc(C)c3)C12C#N (centres unmarked)	8.98
Cc1ccccc1CNS(=O)(=O)c1c(C(=O)N2CCCCC2)c(C)n(C)c1C	7.46
COc1ccccc1N(CC(=O)NCCSCc1ccccc1Cl)S(C)(=O)=O	2.69
COc1ccc(/C=C2\N=C(C)N(c3ccc(C(=O)O)cc3)C2=O)cc1OC	16.2
O=C(O)C(Nc1nc(C(F)(F)F)nc2ccccc12)c1ccccc1 (centres unmarked)	18.6
COC(=O)C1=C(c2cc3ccccc3s2)C[C@@H]2CC[C@H]1N2C(=O)NCc1ccccc1	6.04
O=C(O)CC(NC(=O)COc1ccc(Cl)cc1Cl)C(=O)O (centres unmarked)	13.4

Compound	hERG current change (%, negative = inhibition) at 1uM [%]
Cc1[nH]n(-c2cccc([N+](=O)[O-])c2)c(=O)c1-c1ccccc1	11.1
COc1ccc(-n2c(SCC(=O)Nc3ccc(Cl)cc3)nc(O)c(Cc3ccccc3)c2=O)cc1	6.51
CCNC(=O)N1c2ccccc2Sc2ccccc21	15.2
Clc1ccc(OCCSc2ncccn2)cc1	11.3
Cc1nn(-c2ccccc2)c2c1C(c1ccc(F)cc1F)C(C#N)=C(N)O2 (centres unmarked)	-8.22
COc1ccc(CCNC(=O)CN2C(=O)c3ccccc3S2(=O)=O)cc1OC	-1.89
Cc1c(O)ccc2c(CC(=O)N[C@@H](Cc3ccc(O)cc3)C(=O)O)cc(=O)oc12	11.4
O=c1cc(-c2cccc([N+](=O)[O-])c2)[nH][nH]1	8.78
O=C(CC(O)(C(F)(F)F)C(F)(F)F)Nc1ccc(Cl)c(Cl)c1	8.81
O=C(CSc1ccc(F)cc1)N1CCOCC1	9.84
O=C(c1ccc(C(F)(F)F)cc1)C1CCCN(C(=O)CN2C(=O)CSC2=O)C1 (centres unmarked)	10.2
CCCCn1c(N)c(-c2nc3ccccc3o2)c2c([N+](=O)[O-])nn(C)c(=O)c21	10.8
CCN(CC)CC(O)c1ccc(C2CCCC2)cc1.Cl (centres unmarked)	-18.3
COc1cccc(C2CC(c3ccc(Cl)cc3Cl)Nc3nc(N)nn32)c1 (centres unmarked)	6.04
CC(=O)N(C)c1nnc(-c2ccccn2)s1	5.63
N#Cc1cnn(-c2ncnc3sc4c(c23)CCCC4)c1N	3.71
Cc1ccc2nc(CSc3nnc(Cc4cccs4)n3C3CCCCC3)cc(=O)n2c1	-1.37
CCc1ccc(NC(=O)N2CCC(c3ccccc3)C2)cc1 (centres unmarked)	7.15
CCOC(=O)C1(Cc2ccccc2)CCN(C2Cc3ccccc3C2)CC1	-11.3
O=C(COC(=O)/C=C/c1cccc(C(F)(F)F)c1)NC1CCS(=O)(=O)C1 (centres unmarked)	5.12
Cc1cc(C)c2c(-n3cccc3)c(NC(=O)OC(C)C)sc2n1	6.62
O=C(c1cccnc1)C1CCCN(Cc2nc(Cc3ccccc3F)no2)C1 (centres unmarked)	5.1
